Assay results published in article PMC10855866, “Structural Analysis of Breast-Milk αS1-Casein: An α-Helical Conformation Is Required for TLR4-Stimulation” (International Journal of Molecular Sciences, 2024).
No constants are given. Whether binding was seen depends on the method and setting. Some entries that bind do so weakly or less than the wild type. Each block holds one binder with its values, some of them ahead of it.

Sequences of proteins named here, by UniProt entry; tags and fusion partners are left off. Residues count along the entry.
UniProt O00206, residues 24-839: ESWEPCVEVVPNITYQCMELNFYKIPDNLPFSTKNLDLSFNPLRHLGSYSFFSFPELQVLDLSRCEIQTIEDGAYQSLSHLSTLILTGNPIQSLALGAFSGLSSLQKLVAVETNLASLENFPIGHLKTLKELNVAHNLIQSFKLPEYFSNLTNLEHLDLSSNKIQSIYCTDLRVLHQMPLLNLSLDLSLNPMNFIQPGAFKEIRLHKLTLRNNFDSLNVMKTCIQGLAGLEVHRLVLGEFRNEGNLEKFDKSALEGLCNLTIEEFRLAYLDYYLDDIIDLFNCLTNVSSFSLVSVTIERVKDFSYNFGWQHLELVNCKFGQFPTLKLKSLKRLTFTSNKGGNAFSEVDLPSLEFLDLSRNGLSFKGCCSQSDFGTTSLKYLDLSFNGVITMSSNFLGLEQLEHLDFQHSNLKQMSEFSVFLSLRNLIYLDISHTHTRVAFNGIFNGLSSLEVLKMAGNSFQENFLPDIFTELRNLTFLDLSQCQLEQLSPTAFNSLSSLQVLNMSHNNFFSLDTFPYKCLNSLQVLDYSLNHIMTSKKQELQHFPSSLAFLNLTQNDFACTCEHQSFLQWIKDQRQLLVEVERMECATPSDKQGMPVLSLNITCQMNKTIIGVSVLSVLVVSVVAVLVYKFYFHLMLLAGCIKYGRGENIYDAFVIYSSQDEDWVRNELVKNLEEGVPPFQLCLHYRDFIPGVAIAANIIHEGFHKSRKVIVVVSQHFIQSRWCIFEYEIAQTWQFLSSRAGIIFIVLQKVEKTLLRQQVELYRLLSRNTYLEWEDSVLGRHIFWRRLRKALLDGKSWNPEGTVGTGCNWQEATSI

How the values were obtained:
[1] = target: Toll-like receptor 4 (TLR4) (UniProt O00206); assay: flow cytometry on cells; TLR4+ cells (HEK293 transfected with TLR4/MD2/CD14) and TLR4- cells incubated 24 h with 500 nM αS1-casein or a truncated variant; detected with murine anti-His6 IgG and Dylight633 anti-murine IgG; only the binder purified
[2] = target: recombinant human αS1-casein (human) (UniProt P47710); assay: SDS-PAGE under weak and strong denaturing conditions; αS1-casein 50 µM in 0.2% SDS (20 min, RT), 2% SDS (20 min, RT) or 2% SDS with 0 to 100 mM DTT (20 min, 95 °C); 15% gel, silver stain; both purified

binding [1]: no binding (tested: 500 nM)
B1: αS1-casein truncated variant N4 (domain or fragment, human, UniProt P47710 93-185, looked up)
chain: EMSLSKCAEQFCRLNEYNQLQLQAAHAQEQIRRMNENSHVQVPFQQLNQLAAYPYAVWYYPQIMQYVPFPPFSDISNPTAHENYEKNNVMLQW

binding [1]: binds
B2: αS1-casein truncated variant N2 (domain or fragment, human, UniProt P47710 57-185, looked up)
chain: REKQTDEIKDTRNESTQNCVVAEPEKMESSISSSSEEMSLSKCAEQFCRLNEYNQLQLQAAHAQEQIRRMNENSHVQVPFQQLNQLAAYPYAVWYYPQIMQYVPFPPFSDISNPTAHENYEKNNVMLQW

binding [1]: binds
B3: recombinant human αS1-casein (natural protein, UniProt P47710 16-185, looked up)
chain: RPKLPLRYPERLQNPSESSEPIPLESREEYMNGMNRQRNILREKQTDEIKDTRNESTQNCVVAEPEKMESSISSSSEEMSLSKCAEQFCRLNEYNQLQLQAAHAQEQIRRMNENSHVQVPFQQLNQLAAYPYAVWYYPQIMQYVPFPPFSDISNPTAHENYEKNNVMLQW
notes: human αS1-casein (CSN1S1), from plasmid pET TS001; C1 and C2, made from the same plasmid, begin at residue 16 and N1-N4 end at 185, so it probably lacks the signal peptide (1-15); Not phosphorylated (made in E. coli); also called full-length αS1-casein; full-size αS1-casein; source: E. coli, purified (NTA column chromatography); not shown: His6, N-terminal, kept
binding [2]: no binding (condition: 2% SDS, 100 mM DTT, 20 min, 95 °C)

binding [1]: binds
B4: αS1-casein truncated variant N1 (domain or fragment, human, UniProt P47710 35-185, looked up)
chain: EPIPLESREEYMNGMNRQRNILREKQTDEIKDTRNESTQNCVVAEPEKMESSISSSSEEMSLSKCAEQFCRLNEYNQLQLQAAHAQEQIRRMNENSHVQVPFQQLNQLAAYPYAVWYYPQIMQYVPFPPFSDISNPTAHENYEKNNVMLQW
